Among all 120,000 compounds or so, about 5,300 (4.4%) were called active. Inconclusive results, whose numbers are uncertain, are shown with a selection of clear calls. Calls come from the whole dose curve; as a rule, active = well fitted inhibition curve with a large enough effect; inconclusive = small, poorly fitted or top-dose-only effect; inactive = no such curve, though single readings can be large or run the other way. A potency beside an inconclusive call is a rough fit, not a confirmed value.
Test: qHTS Primary assay for Inhibitors of Plasmodium falciparum Dd2 growth in vitro; note: nearly all actives have a fitted effect of over 65% in size;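 for activity, negative = inhibition: plate controls were DMSO vehicle for no effect and reference drug for full effect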
Settings: P. falciparum Dd2 growth, SYBR Green, 72 h; activity, negative = inhibition: at 28.9 µM (top of the series) unless noted; series mostly up to 28.9 µM
Summary of the method: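 Infected erythrocytes (Dd2, 0.3% parasitemia, 2.5% hematocrit final) are added to compound in RPMI-1640/Albumax II medium, grown 72 h at 37C in low oxygen, then lysed with saponin/Triton-X containing SYBR Green and read by fluorescence.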
Potency is the fitted concentration of half-maximal effect; tags give direction and shape of the fitted curve.

| Compound | Potency | activity, negative = inhibition |
| --- | --- | --- |
| O=C(c1nnc(COc2ccc(OC(F)(F)F)cc2)n1-c1ccccc1)N1CCC[C@@H]1C(c1ccccc1)c1ccccc1 | inconclusive: 1 µM [inhibitor, full curve, poor fit] |  |
| CCN(CC)S(=O)(=O)c1ccc(-c2csc(=Nc3cccc(C(F)(F)F)c3)n2Cc2ccc3c(c2)OCO3)cc1 | inconclusive: 17.8 µM [inhibitor, single point] |  |
| COC(=O)c1nc(NC(=O)C[C@H]2NC(=O)c3ccccc3NC2=O)sc1CC(C)C | inconclusive: 12.6 µM [inhibitor, partial curve] |  |
| Cc1nn2c(c1-c1ccccc1-c1ccccc1)N(Cc1ccc(O)cc1)CCC2 | inconclusive: 1.12 µM [inhibitor, full curve, poor fit] |  |
| Cn1nc(-c2nncn2CC2CC2)c2c1CCN(C(=O)c1n[nH]c3ccccc13)C2 | inconclusive: 0.631 µM [inhibitor, partial curve, poor fit] |  |
| CCCCCCc1cc2cc(-c3nnc(-c4cccc(Cl)c4)o3)c(=O)oc2cc1O | inconclusive: 3.98 µM [inhibitor, single point] |  |
| Cc1ccc(NC(=O)c2oc3ccc(S(=O)(=O)N4CCCCC4)cc3c2C)c(C)c1 | inconclusive: 1.12 µM [inhibitor, single point] |  |
| CN(C)c1ccc(CN2CCC3(CC2)C(=NC2CCCCC2)NC(=O)N3c2cc(F)cc(F)c2)cc1 | inconclusive: 11.2 µM [inhibitor, single point] |  |
| Cc1cccc(C(=O)N2CCCCC2CCN2CCCCC2)c1 (stereo unspecified) | inconclusive: 20 µM [inhibitor, single point] |  |
| O=C(Nc1ccc(F)cc1)c1oc2ccccc2c1NC(=O)C1CCCCC1 | inconclusive: 17.8 µM [inhibitor, single point] |  |
| Cc1cc(C)c2[nH]c(C(=O)N(C)Cc3ccc4nsnc4c3)c(C)c2c1 | inconclusive: 7.94 µM [inhibitor, single point] |  |
| FC(F)(F)c1ccc(CN2CCNc3cc(Nc4ccccc4)ncc3C2)cc1 | inconclusive: 11.2 µM [inhibitor, single point] |  |
| Cc1ccc(CN2CCCC(c3nc(-c4cccnc4)no3)CCNC(=O)CC2)s1 (stereo unspecified) | inconclusive: 6.31 µM [inhibitor, partial curve, poor fit] |  |
| COc1ccc(C(=O)N2c3nc(-c4ccco4)nn3C3(CCCCC3)[C@@H]3CCCC[C@@H]32)cc1OC | inconclusive: 10 µM [inhibitor, single point] |  |
| COc1ccc(-c2cnc3[nH]cc(CC(=O)Nc4cccnc4)c3c2)cc1 | inactive |  |
| CC[C@H]1CN(C(=O)Nc2cccc(C(F)(F)F)c2)CC[C@H]1CC(=O)Nc1ccccc1 | inconclusive: 14.1 µM [inhibitor, single point] |  |
| CNC(=O)c1cc(-c2cnn(C)c2C)cc2c1OCCN2Cc1cccnc1 | inactive |  |
| O=C(c1cccs1)N1CCCCCC1CN1CCCC1 (stereo unspecified) | active: 1.26 µM |  |
| CC(=O)Nc1cccc(C(=O)N2CCC3(CC2)NC(=O)N(c2cccc(Cl)c2)N3)c1 | inconclusive: 17.8 µM [inhibitor, single point] |  |
| CCc1nc2c(c(-c3ccc(O)cc3)n1)CCN(Cc1ccccn1)CC2 | inconclusive: 10 µM [inhibitor, single point] |  |
| CCc1nc2ccc(C(=O)NCc3ccccc3C)cc2nc1CC | inconclusive: 0.794 µM [inhibitor, full curve] |  |

| Compound | Potency | activity, negative = inhibition |
| --- | --- | --- |
| COc1ccc(CCNC(=O)c2ccc3c(c2)N(Cc2ccccc2Cl)C(=O)c2ccccc2S3)cc1OC | active: 11.2 µM |  |
| CCOC(=O)c1cc2c(=O)n3ccccc3nc2n(CC2CCCO2)c1=NC(=O)c1cccc(C)c1 (stereo unspecified) | inconclusive: 10 µM [inhibitor, single point] |  |
| O=C(COc1ccccc1F)Nc1nnc(SCc2cc(=O)n3ccccc3n2)s1 | inconclusive: 17.8 µM [inhibitor, single point] |  |
| COc1ccc(CCC(=O)N2Cc3ccccc3OC3(CCN(C)CC3)C2)cc1 | inconclusive: 0.141 µM [inhibitor, full curve, poor fit] |  |
| COc1ccc(-c2ccnc(-c3nnc(C)n3Cc3ccccc3)c2)cc1OC | inconclusive: 2.51 µM [inhibitor, partial curve] |  |
| O=C(O)CC1CCCN(c2cn[nH]c(=O)c2)C1 (stereo unspecified) | inactive |  |
| CNC(=O)N1CCC(C2CCN(Cc3ccc(F)c(OC)c3)C2)CC1 (stereo unspecified) | inconclusive: 8.91 µM [inhibitor, single point] |  |
| O=C1CN(C(=O)C2CNCC23CCOCC3)CCN1 (stereo unspecified) | inactive |  |
| CN1Cc2ncnc(NCCc3ccccc3)c2CN(c2ccc(Cl)cc2)C1=O | inactive |  |
| Cc1cc(Cl)ccc1NC(=O)N1CCCC(Cn2cnc3cccnc32)C1 (stereo unspecified) | inconclusive: 14.1 µM [inhibitor, single point] |  |
| CCC(=O)C1=C(c2ccccc2)N(C(=O)CC)n2c(nnc2-c2ccccc2)S1 | inconclusive: 0.891 µM [inhibitor, full curve, poor fit] |  |
| CC(C)NC(=O)c1ccccc1OCC1CCCN(Cc2cncs2)C1 (stereo unspecified) | inconclusive: 17.8 µM [inhibitor, single point] |  |
| Cc1csc2nc(COc3ccc(NC(=O)c4ccccc4F)cc3)cc(=O)n12 | inconclusive: 0.631 µM [inhibitor, full curve] |  |
| COC(=O)CN1C(=O)C(O)(c2c(C)[nH]c3ccccc23)c2ccccc21 (stereo unspecified) |  | inactive: 6.78% [at 0.594 µM] |
| CC(C)N1CC[C@H](c2nc3ccc(C(F)(F)F)cc3[nH]2)C1 | inconclusive: 8.91 µM [inhibitor, partial curve] |  |
| COCc1ccc2c(c1)c(OC(C)(C)C(=O)Nc1ccn(C)n1)nn2CCC(C)C | inconclusive: 10 µM [inhibitor, partial curve, poor fit] |  |
| FC(F)(F)c1ccc(N2CCC(N[C@@H]3C[C@@H]4OCC[C@@H]43)CC2)nc1 | inconclusive: 11.2 µM [inhibitor, single point] |  |
| Cc1noc(-c2ccccc2Cl)c1C(=O)NCc1cccc(F)c1F | inactive |  |
| CCC1CN(C(=O)c2ccc3nc(-c4ccccc4)cn3c2)CCN1C(C)C (stereo unspecified) | inconclusive: 11.2 µM [inhibitor, single point] |  |
| COc1ccc(-c2nc3n(n2)C(c2ccc(O)cc2)C(C(=O)Nc2cccnc2)=C(C)N3)cc1OC (stereo unspecified) | inactive |  |
| CC(C)n1cnnc1CC1CCN(C(=O)CN(C)S(=O)(=O)c2cccs2)CC1 | inactive |  |

| Compound | Potency | activity, negative = inhibition |
| --- | --- | --- |
| O=C(NCc1cccnc1)c1nc(-c2cccc(F)c2)c2cnccn12 | inconclusive: 8.91 µM [inhibitor, single point] |  |
| COCCNc1cc(-c2noc([C@@H]3CCCN3CC(C)C)n2)ccn1 | inconclusive: 7.94 µM [inhibitor, partial curve] |  |
| COc1ccc(NC(=O)c2cccc3c(=O)c4c([nH]c23)CCCC4)cc1 | inconclusive: 8.91 µM [inhibitor, single point] |  |
| CCCC1=Nc2cc(C(=O)NCc3ccccc3)ccc2Sc2ccccc21 | active: 11.2 µM |  |
| COc1ccc(CN2CCCC3(C2)C(=NC2CCCCC2)NC(=O)N3c2cc(F)cc(F)c2)cc1 (stereo unspecified) | inconclusive: 1.26 µM [inhibitor, full curve, poor fit] |  |
| CCOC(=O)C1CCN(C(=O)C2CCN(S(=O)(=O)c3c(C)noc3/C=C/c3ccc(C)cc3)CC2)CC1 | inconclusive: 15.8 µM [inhibitor, single point] |  |
| CCCCN(C)S(=O)(=O)c1ccc(C(=O)Nc2sc3c(c2C(=O)OCC)CCN(C(C)C)C3)cc1 | active: 6.31 µM |  |
| O=C(NCC1CN(C(=O)Cc2ccccc2)CC12CN(c1ccccc1)C2)C1CC1 (stereo unspecified) | inconclusive: 31.6 µM [inhibitor, single point] |  |
| CCOC(=O)c1[nH]c(C)c(CCC(=O)N2CCN(c3ccc(OC)cc3)CC2)c1C | inconclusive: 10 µM [inhibitor, single point] |  |
| O=C1Nc2ccc(-c3ccc4c(c3)OCO4)cc2C(=O)N2C[C@@H](NS(=O)(=O)c3ccc(F)cc3)C[C@@H]12 | inconclusive: 8.91 µM [inhibitor, single point] |  |
| CCOC(=O)c1c(NC(=O)c2ccc(S(=O)(=O)N3CCCC(C)C3)cc2)sc2c1CC(C)(C)NC2(C)C (stereo unspecified) | inconclusive: 11.2 µM [inhibitor, single point] |  |
| CCOCCCN1C(=O)CN(C2CCCCCC2)C(=O)C1c1ccc(OCC)c(OC)c1 (stereo unspecified) | inconclusive: 20 µM [inhibitor, single point] |  |
| COCc1ccc2c(c1)c(OC(C)(C)C(=O)N1CCN(CCO)CC1)nn2Cc1ccccc1 | inconclusive: 1.26 µM [inhibitor, partial curve] |  |
| Cc1cc(C)c(-c2nc3ncccc3[nH]2)[nH]1 | inconclusive: 31.6 µM [inhibitor, single point] |  |
| COc1ccc(Cl)cc1C(=O)N1CCN(c2cc(-c3cccs3)[nH]n2)CC1 | inconclusive: 3.98 µM [inhibitor, single point] |  |
| O=C(C1CC1)N(C1CCOCC1)C1CCN(S(=O)(=O)c2ccccc2)CC1 | inconclusive: 15.8 µM [inhibitor, single point] |  |
| COc1ccc(-c2nc(SCC(=O)NC3CCCC3)c(-c3ccc(F)cc3)[nH]2)cc1OC | inconclusive: 11.2 µM [inhibitor, single point] |  |
| COc1ccccc1CNC(=O)C(=O)NCC(c1cccnc1)N1CCN(c2ccccc2)CC1 (stereo unspecified) | inconclusive: 17.8 µM [inhibitor, single point] |  |
| CN1CCC2(CC1)Cc1ccccc1CN([S+](C)(=O)[O-])C2 | inactive |  |

— PubChem BioAssay AID1347417 (National Center for Advancing Translational Sciences (NCATS), 2020)
